Test results published in PMC6919601, “Identification of Plasmodium dipeptidyl aminopeptidase allosteric inhibitors by high throughput screening” (PLoS ONE, 2019).
The whole screen tested about 110,000 compounds, of which about 230 (0.21%) showed an effect of 50% or more. The list shows a part of the results.

What follows are compounds tested against DPAP1 (Plasmodium falciparum, UniProt Q8IIJ9) (assay: primary screen, percent inhibition; read by cleavage of a fluorogenic dipeptide substrate; higher = more effect of the substance).
Chain of DPAP1 (Q8IIJ9 whole entry, looked up): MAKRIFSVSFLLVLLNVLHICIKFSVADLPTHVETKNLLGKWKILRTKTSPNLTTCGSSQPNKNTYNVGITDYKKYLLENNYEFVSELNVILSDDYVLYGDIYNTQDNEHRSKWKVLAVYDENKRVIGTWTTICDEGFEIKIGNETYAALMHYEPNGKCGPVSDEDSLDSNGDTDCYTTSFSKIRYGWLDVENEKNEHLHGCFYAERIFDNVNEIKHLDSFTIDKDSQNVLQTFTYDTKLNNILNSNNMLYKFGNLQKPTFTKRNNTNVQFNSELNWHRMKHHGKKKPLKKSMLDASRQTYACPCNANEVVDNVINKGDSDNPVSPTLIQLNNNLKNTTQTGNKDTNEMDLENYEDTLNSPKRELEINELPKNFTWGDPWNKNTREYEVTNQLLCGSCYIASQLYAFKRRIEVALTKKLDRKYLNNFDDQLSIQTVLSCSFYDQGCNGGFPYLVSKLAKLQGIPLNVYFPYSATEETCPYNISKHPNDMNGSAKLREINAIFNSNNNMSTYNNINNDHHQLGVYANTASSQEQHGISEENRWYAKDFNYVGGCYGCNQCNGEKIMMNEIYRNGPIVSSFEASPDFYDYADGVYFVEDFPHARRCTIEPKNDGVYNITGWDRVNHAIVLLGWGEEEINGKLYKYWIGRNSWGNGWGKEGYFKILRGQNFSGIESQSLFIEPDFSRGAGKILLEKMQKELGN
Parameters: species or system P. falciparum D10 trophozoite lysates; single well
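Note: 30 min substrate incubation versus DMSO and 10 µM JCP410 controls.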

| Structure (SMILES) | % Inhibition @ 10 uM [%] |
| --- | --- |
| COc1ccc(C2NC(=O)NC(C)=C2C(=O)OCC(C)C)cc1Br (stereo not shown) | -6.74 |
| COc1ccc(-c2cc(C(F)(F)F)c(C#N)c(SCC(N)=O)n2)cc1OC | -1.84 |
| CCCOc1ccc(CNC(=O)C(CC)n2nc(CC)n3c(cc4oc(C)cc43)c2=O)cc1 (stereo not shown) | 3 |
| O=C(CN1C(=O)S/C(=C\c2ccccc2OCc2cccc(F)c2)C1=O)N1CCOCC1 | 3.16 |
| CC(=O)c1nnn(-c2nc(N3CCOCC3)nc(N3CCOCC3)n2)c1C | 3.81 |
| C=C(C)Cn1c(N2CCCCC2)nc2c1c(=O)[nH]c(=O)n2C | 3.15 |
| Cc1ccc(Cl)cc1NC(=O)CSc1nc2ccccc2[nH]1 | 2.93 |
| Cc1cccc(NC(=O)C(C)Sc2nc3nc(C)cc(C)n3n2)c1 (stereo not shown) | 1.67 |
| CC1CC(S)=Nc2ccccc2N1Cc1ccccc1 (stereo not shown) | 4.84 |
| Cc1ccc2c(CNCc3ccco3)c(C(=O)O)n(Cc3ccc(F)cc3Cl)c2c1 | -1.63 |
| COCc1cc(C)nc2sc(C(=O)Nc3ccc(Br)c(Cl)c3)c(N)c12 | -2.94 |
| Cc1ccc2c(c1)cc1c(=O)n(CC(=O)NCCCOC(C)C)nc(C)n12 | 0.0198 |
| CC(=O)Nc1ccc(C(=O)Nc2ccccc2Br)cc1 | 2.7 |
| COc1ccccc1/C=C(\NC(=O)c1ccccc1)C(=O)Nc1cccc(Br)c1 | 1.41 |
| C=CCN(Cc1nc(-c2ccc(OC)cc2)no1)S(=O)(=O)c1ccc(C)cc1 | -0.946 |
| COc1cc(C2C3=C(CCCC3=O)N(C)C3=C2C(=O)CCC3)ccc1OCc1ccc(F)cc1 | -1.6 |
| COc1ccc(-c2c(C(F)(F)F)oc3cc(OC)ccc3c2=O)cc1 | 3.9 |
| CCN(CC)CCCNc1nc2ccccc2c2nc(-c3ccncc3)nn12 | 2.6 |
| CCCCOc1ccc(C2C(=O)N(C3CCCCC3)CC(=O)N2CC2COc3ccccc3O2)cc1 (stereo not shown) | 4.36 |
| CCN1CCN(c2ncc3c(n2)CC(c2cc(OC)c(OC)c(OC)c2)CC3=O)CC1 (stereo not shown) | -5.2 |
| Cc1ccc2oc(-c3cccc(NC(=O)c4cccc5ccccc45)c3)nc2c1 | 1.41 |
| O=C(CCS(=O)(=O)c1nc(-c2ccc3c(c2)OCO3)cc(C(F)(F)F)n1)Nc1cccnc1 | 1.91 |
| Cc1ccc2nc(Cl)c3cc(C(=O)N4CCC(C(N)=O)CC4)sc3c2c1 | -0.0115 |
| O=C(O)Cn1cc(/C=C2/NC(=O)N(Cc3ccccc3F)C2=O)c2ccccc21 | 4.85 |
| CC(=O)c1sc(NC(=O)C23CC4CC(CC(C4)C2)C3)nc1C | 12.1 |

| Structure (SMILES) | % Inhibition @ 10 uM [%] |
| --- | --- |
| Cc1ccc2oc(C(=O)NCc3ccc(S(N)(=O)=O)cc3)c(C)c2c1 | -3.71 |
| CCC(C)N1CC(C(=O)NCCc2ccc(Cl)cc2)CC1=O (stereo not shown) | -1.21 |
| Cc1sc(NC(=O)C2CCCCC2)nc1-c1ccccc1 | -2.44 |
| CC(C)CCNC(=O)CN1N=C(c2ccccc2)CCC1=O | -2.99 |
| CCCOC(=O)C(C)Nc1nnc(O)nc1O (stereo not shown) | 1.27 |
| Cc1cc(O)nc(SCC(=O)N2CCN(C(c3ccccc3)c3ccccc3)CC2)n1 | -1.38 |
| COc1ccc(C2CC(=O)C3=C(CC(C)(C)CC3=O)N2c2ccncc2)cc1OC (stereo not shown) | -1.05 |
| N#Cc1ccc(OCc2cccc(C(=O)N3N=C(C(F)F)CC3(O)C(F)F)c2)cc1 (stereo not shown) | 2.08 |
| CCc1cc2c(cc3c(=O)n(CC(=O)NCc4cccc(Cl)c4)ncn32)s1 | 6.16 |
| O=C(C(c1ccccc1)N1Cc2ccccc2C1=O)N1CCc2ccccc2C1 (stereo not shown) | 8.32 |
| Cc1cccc(OCc2nc3ccccc3n2C)c1 | -1.31 |
| CC(C)c1ccc(OCC(O)CN2C(C)CCCC2C)cc1 (stereo not shown) | -0.67 |
| O=C(NC1CCN(Cc2ccccc2)CC1)C1c2ccccc2C(=O)N2CCc3ccccc3C12 (stereo not shown) | -2.4 |
| O=c1c2cnn(-c3ccc(Cl)cc3)c2ncn1Cc1cccnc1 | -0.0309 |
| COc1ccc(N(CC(=O)Nc2ccc(Cl)cc2C)S(C)(=O)=O)cc1OC | -5.7 |
| CCOC(=O)c1nnn(-c2nonc2N)c1CSC#N | -0.0735 |
| C=Cc1ccc(Cn2c(C(=O)O)c(CNCc3ccc(CC)cc3)c3ccc(C)cc32)cc1 | 4.96 |
| CCOc1ccc(CC(=O)NCc2cccs2)cc1OCC | -4.72 |
| NC(=O)CCS(=O)(=O)CCN1CCCC1 | -3.92 |
| O=C(C1=C(O)C(=O)N(CCCN2CCOCC2)C1c1ccccc1)c1cc2ccccc2o1 (stereo not shown) | -3.87 |
| Cc1ccc(CNC(=O)c2ccc(N3Cc4ccccc4Oc4ncccc43)s2)o1 | -3.39 |
| Cc1c(C(=O)N2CCC(Cc3ccccc3)CC2)sc2nc3n(c(=O)c12)CCCCC3 | -3.18 |
| CCCOc1ccc(CNC(=O)Cn2ncn3nc(-c4cccs4)cc3c2=O)cc1 | -2.85 |
| CCOC(=O)c1cnc2cc(C(F)(F)F)ccc2c1N1CC(C)CC(C)C1 (stereo not shown) | -0.631 |
| Cc1cc(C)cc(OCCSc2nc(-c3ccco3)nc3cc(=O)[nH]n23)c1 | 3.33 |

| Structure (SMILES) | % Inhibition @ 10 uM [%] |
| --- | --- |
| O=C(Nc1cc(Cl)ccc1C(=O)O)c1ccc(N2C(=O)c3ccccc3C2=O)cc1 | 3.79 |
| COc1ccc(-c2c(C)sc(NC(=O)C3CC=CCC3C(=O)O)c2C#N)cc1 (stereo not shown) | 1.43 |
| COc1ccc(-c2cn3nc(N4CCCC(C(=O)NC(C)C)C4)sc3n2)cc1 (stereo not shown) | -3.32 |
| CCOc1ccc(C(c2c(O)oc3ccccc3c2=O)c2c(O)oc3ccccc3c2=O)cc1 | 3.47 |
| Cc1ccc(C(O)C(C)C(=O)O)cc1 (stereo not shown) | 0.00784 |
| COc1ccc(C(=O)Nc2ccc(C(C)C)cc2)cc1OC | -0.771 |
| COc1ccc(OC)c(-c2nc3[nH]nc(C)n3n2)c1 | -4.93 |
| CN(Cc1ccccc1)S(=O)(=O)c1cc(Cl)ccc1Cl | -3.04 |
| Cc1cc(O)c(C(=O)/C=C/c2ccsc2)c(=O)o1 | 3 |
| Cc1ccc(C23CC4CC(CC(CNC(=O)c5cc(Cl)cc(Cl)c5)(C4)C2)C3)cc1 | -5.41 |
| CCCC1=C(C(=O)OCC)C(c2ccc(Cl)cc2Cl)C(C#N)=C(N)O1 (stereo not shown) | 1.48 |
| CCc1nc(SC)ncc1C(=O)NCc1ccc(Cl)cc1 | 1.6 |
| Sc1nc2ccccc2c2nc(CCc3c[nH]c4ccccc34)nn12 | 8.44 |
| CCOc1cccc(C(=O)Nc2cccc(NC(=O)c3cccc(Cl)c3)c2)c1 | 9.65 |
| COc1ccc(C(=O)N2CCN(C(=O)c3cccc(F)c3)CC2)cc1 | -10.8 |
| O=C(CSc1nc2ccsc2c(=O)n1Cc1ccccc1)NCc1ccccc1 | -6.44 |
| CS(=O)(=O)N(Cc1cc2ccccc2nc1O)C1CCCCC1 | 4.18 |
| CCOC(=O)C1=C(c2ccccc2)Nc2nc3ccccc3n2C1c1ccccc1 (stereo not shown) | 5.12 |
| O=C(O)c1ccccc1NC(=O)C1CC=CCC1C(=O)O (stereo not shown) | -5.14 |
| CCOC(=O)c1c(CN2CCOCC2)n(C)c2ccc(OC)c(S(=O)(=O)c3ccccc3)c12 | -3.41 |
| CCOc1cc(C2CC(=O)NC3=C2C(=O)CC(c2ccccc2Cl)C3)cc(Cl)c1O (stereo not shown) | 5.32 |
| COc1cccc(/C=C/C(=O)c2cccs2)c1OC | 0.247 |
| Cc1ccc2oc(=O)c3cnn(CC(=O)NCCN4CCOCC4)c3c2c1 | 3.2 |
| O=C(C1CC1c1ccccc1)N1CCN(C(c2ccccc2)c2ccccc2)CC1 (stereo not shown) | 2.58 |
| CCCN(CCC)S(=O)(=O)c1csc(C(N)=O)c1 | -4.04 |

| Structure (SMILES) | % Inhibition @ 10 uM [%] |
| --- | --- |
| O=C(NCCc1ccccc1)c1ccc(C(=O)NCCc2ccccc2)s1 | 0.0719 |
| Cc1ccccc1NC(=O)CSC1=C(C#N)C(c2cccs2)CC(=O)N1 (stereo not shown) | -4.49 |
| CC(C)CC1NC(=O)CNC1=O (stereo not shown) | 1.81 |
| O=[N+]([O-])c1ccc(-c2ncccc2O)cc1 | -5.5 |
| CCCNS(=O)(=O)c1csc(C(N)=O)c1 | -1.68 |
| O=C1C=CCN1c1ccc([N+](=O)[O-])cc1 | -0.415 |
| CCc1nc(SCC(=O)Nc2ccccc2)c(C#N)cc1C | 4.08 |
| CC(C)c1ccc(NC(=O)c2ccccc2[N+](=O)[O-])cc1 | -2 |
| CCC(=O)Nc1ccc(S(=O)(=O)N2CCc3ccccc32)cc1 | 0.709 |
| O=C1OC(OC2CCCCC2)(c2ccccc2)c2ccccc21 (stereo not shown) | -0.597 |
| CCN1CCCC1CNC(=O)c1nnc(Cc2ccccc2OC)o1 (stereo not shown) | -4.15 |
| CCOc1cc(-c2cc(N)[nH]n2)cc(OCC)c1OCC | -2.88 |
| COc1cccc(C2=NOC(C(=O)N3CCC4(CC3)OCCO4)C2)c1OC (stereo not shown) | 12.8 |
| Brc1cccc(CN2CCN(Cc3ccco3)CC2)c1 | 2.38 |
| CC(=O)N(C)c1ccc(NC(=O)COc2ccccc2)cc1 | -9.66 |
| CCCCC(=O)Nc1ccccc1OCC | 6.23 |
| CC(C)(CNC(=O)Cc1ccc(Cl)cc1)CNC(=O)Cc1ccc(Cl)cc1 | 0.331 |
| CC(NC(=O)c1cccnc1)c1cc2c(cc1Br)OCCO2 (stereo not shown) | 0.13 |
| CCCCN1C(=O)C2Cc3c([nH]c4ccccc34)C(c3cccc(OC)c3)N2C1=O (stereo not shown) | 6.43 |
| Cc1cccc(N2C(=O)C3C(C2=O)C2C=CC3C23CC3)c1 (stereo not shown) | 1.96 |
| Cn1nc(CC(=O)Nc2ncc(Br)s2)c2ccccc2c1=O | 2.8 |
| COc1cccc(-n2c(SCC(=O)NCc3ccco3)nc3nnc(C)c-3c2N)c1 | 4.35 |
| Cc1noc2ncnc(N3CCCC(C(=O)NCCC4=CCCCC4)C3)c12 (stereo not shown) | -1.88 |
| Oc1ncnc2sc3c(c12)CCCC3 | -7.25 |
| O=C(O)C1CCCCC1C(=O)Nc1nc(-c2ccc(Br)cc2)cs1 (stereo not shown) | -3.71 |
